# PubChem BioAssay AID1745853 (National Center for Advancing Translational Sciences (NCATS), 2022)
# The other results are listed elsewhere or left out. These are further read-outs of the screen, such as a control signal, another cell line or another target. No call is given for them.
# Tests used:
# Assay in all cases: Primary Screen for Target Class Profiling of Small Molecule Inhibitors of Methyltransferases
# [1] = biological target: Glycine N-methyltransferase (Homo sapiens) (UniProt Q14749); details: purified enzyme, MTase-Glo SAH luminescence; measured here: GNMT inhibition; at 40 µM; stronger effect = lower value
# Summary of the method: (§1)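 Each enzyme was reacted with SAM and its substrate, with compounds tested once at 40 uM; SAH formed was read by MTase-Glo luminescence.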
# [2] = biological target: Guanidinoacetate N-methyltransferase (Homo sapiens) (UniProt Q14353); details: purified enzyme, MTase-Glo SAH luminescence; measured here: GAMT inhibition; at 40 µM; stronger effect = lower value
# Summary of the method: as §1
# [3] = biological target: Histamine N-methyltransferase (Homo sapiens) (UniProt P50135); details: purified enzyme, MTase-Glo SAH luminescence; measured here: HNMT inhibition; at 40 µM; stronger effect = lower value
# Summary of the method: as §1
# [4] = biological target: Nicotinamide N-methyltransferase (Homo sapiens) (UniProt P40261); details: purified enzyme, MTase-Glo SAH luminescence; measured here: NNMT inhibition; at 40 µM; stronger effect = lower value
# Summary of the method: as §1
# [5] = biological target: Phenylethanolamine N-methyltransferase (Homo sapiens) (UniProt P11086); details: purified enzyme, MTase-Glo SAH luminescence; measured here: PNMT inhibition; at 40 µM; stronger effect = lower value
# Summary of the method: as §1
# % is scaled to controls: 0 for no effect and ±100 for the full control effect.
Structure (SMILES),"activity change, negative = inhibition [1]","activity change, negative = inhibition [2]","activity change, negative = inhibition [3]","activity change, negative = inhibition [4]","activity change, negative = inhibition [5]"
CCOC(=O)c1cc2n(n1)CC(C)(C(=O)NCc1ccc(F)cc1)N(CCc1ccc(Cl)cc1)C2=O (stereo not drawn),-4.18%,1.74%,0.469%,-7.39%,-4.48%
Cc1ncccc1OC1(C(=O)O)CCN(C(=O)Cc2ccn(C)c2)CC1,-6.56%,-5.85%,-3.26%,-4.66%,-2.72%
O=C(O)CCCC[C@@H]1CCSS1,6.6%,14.2%,12.9%,-2.38%,1.5%
Cc1cc(C)n(CCCN(C)C(=O)c2cn(Cc3ccc(F)cc3)nn2)n1,-2.69%,-2.04%,1.46%,-0.272%,16%
CN1C(=O)[C@H]2CN(Cc3cn[nH]c3-c3cccs3)C[C@H]2C1=O,-13.4%,-7.38%,-2.17%,-9.72%,-6.42%
Cc1cccc(N2CCN(CCNC(=O)CCc3nnc4n(CCC(C)C)c(=O)c5ccccc5n34)CC2)c1C,-2.6%,2.47%,7.49%,9.59%,2.55%
C[S+](=O)([O-])N1CC2(CCN(Cc3ccc(Cl)cc3)C2)Cc2ccccc21 (stereo not drawn),-1.88%,-1.33%,-5.84%,-6.58%,1.2%
COc1ccc(C(=O)N2CCOCCNC(=O)[C@H]3CCCC[C@H]32)c(OC)n1,-0.521%,-2.13%,-0.082%,-3.02%,-5.97%
Cc1cnc(C2CCC2)n1CCC1CCN(C(=O)c2ccc3ccccc3n2)CC1,-5.78%,-4.91%,-36.8%,-15.9%,-3.91%
COc1ccccc1CN1C(=O)c2cc3sccc3n2CC1(C)C(=O)NC1CCCCC1 (stereo not drawn),6.13%,0%,9.09%,11.3%,4.65%
COc1ccc2cc3n(c2c1)CC(C)(C(=O)NC1CCCCC1)N(C1CCCCCC1)C3=O (stereo not drawn),1.23%,2.18%,4.41%,-3.69%,-3.79%
CC(C[N+](C)(C)C)OC(N)=O (stereo not drawn),-0.788%,3.91%,-0.61%,-7.33%,3.08%
COc1ccccc1CNC(=O)C1(C)Cn2cnc(C(=O)NCc3ccc(C)cc3)c2C(=O)N1C1CC1 (stereo not drawn),5.11%,0%,8.41%,8.47%,10.1%
O=C(NC1CC1)C1c2ccccc2C(=O)N(C2CCCCC2)C12CCCCC2 (stereo not drawn),-3.92%,0.745%,-0.241%,-4.01%,2.63%
CC1(C(=O)NC2CCCCC2)Cn2c(cc3occc32)C(=O)N1Cc1cccc(Cl)c1 (stereo not drawn),-1.89%,-12.1%,7.21%,-9.72%,-7.06%
O=C(c1ccc(-c2ccco2)cc1)N1CCOC(c2ccccc2)C1 (stereo not drawn),-12.6%,-1.07%,-2.06%,-3.38%,-3.86%
CC1CCC(NC(=O)C2(C)Cn3c(cc4occc43)C(=O)N2Cc2ccc(OC(C)C)cc2)CC1 (stereo not drawn),2.1%,1.1%,5.08%,-1.08%,2.76%
CN(CC1CCN(CCc2ccc(Cl)cc2)CC1)C(=O)c1ccccc1C#N,-2.7%,4.08%,-1.56%,-4.57%,10.2%
Cn1c(=O)c2ccc(C(=O)NC3CCCCC3)cc2n2c(SCc3ccccc3F)nnc12,-0.503%,0.845%,-1.1%,-1.83%,4.19%
CCCN1CCN(C(=O)C2(c3ccc(NC(=O)C4CC4)cc3)CCCCC2)CC1,-5.05%,-7.09%,-6.19%,-10.6%,-2.58%
Cc1cc(C(C#N)c2ccc(Cl)cc2)c(Cl)cc1NC(=O)c1cc(I)cc(I)c1O (stereo not drawn),-47.9%,-77.2%,-16.6%,-95.6%,-91.6%
Cc1c(C2=CCN(C(=O)N(C)C(C)C)CC2)nnn1-c1cccnc1F,-5.08%,-19.8%,3.26%,-30.2%,-6.76%
CCCn1c(=O)c2cc(F)ccc2n2c(SCC(=O)Nc3cc(OC)cc(OC)c3)nnc12,7.47%,0%,11.1%,5.04%,7.19%
COc1ccc(CN2CCC(N3Cc4cccn4C3=O)CC2)cc1,-5.94%,-3.08%,-6.68%,-5.62%,-24.7%
Cc1cccc(N2C(=O)CSc3c(c4ccccc4n3C)C2C(=O)NCc2ccccc2)c1C (stereo not drawn),5.94%,0.603%,1.56%,-0.011%,6.98%
CNC(=O)[C@H]1O[C@@H](n2cnc3c(NCc4ccc(N)c(I)c4)ncnc32)[C@H](O)[C@@H]1O,0.66%,0.562%,7.94%,-4.41%,4.29%
COc1ccc(C[C@H](NC(=O)[C@H](C)NC(=O)CN2CCOCC2)C(=O)N[C@@H](Cc2ccccc2)C(=O)[C@@]2(C)CO2)cc1,,-7.64%,,-15.2%,2.15%
COC(=O)[C@H]1CN(C(=O)NC(C)C)CCN1C(=O)c1cccnc1,-5.54%,-11.4%,-2.26%,-7.14%,-1.84%
CC1(C)C2CC=C(COC3OC(COC4OCC(O)(CO)C4O)C(O)C(O)C3O)C1C2 (stereo not drawn),0%,-4.28%,0.148%,-14.5%,2.61%
CC1CCC(NC(=O)C2(C)Cn3c(cc4occc43)C(=O)N2Cc2cccs2)CC1 (stereo not drawn),-5.48%,4.5%,0.458%,-7.36%,-4.1%
